In all, about 310,000 compounds went through this assay and about 2,200 (0.71%) showed an effect of 50% or more. Effects have a minus sign here. The list shows a part of the results.
Target: human ether-à-go-go-related gene (hERG) potassium channel (human, UniProt Q12809)
Experiment: primary screen, population patch clamp on CHO cells stably expressing hERG

human ether-à-go-go-related gene (hERG) potassium channel, sequence (Q12809 whole entry, looked up): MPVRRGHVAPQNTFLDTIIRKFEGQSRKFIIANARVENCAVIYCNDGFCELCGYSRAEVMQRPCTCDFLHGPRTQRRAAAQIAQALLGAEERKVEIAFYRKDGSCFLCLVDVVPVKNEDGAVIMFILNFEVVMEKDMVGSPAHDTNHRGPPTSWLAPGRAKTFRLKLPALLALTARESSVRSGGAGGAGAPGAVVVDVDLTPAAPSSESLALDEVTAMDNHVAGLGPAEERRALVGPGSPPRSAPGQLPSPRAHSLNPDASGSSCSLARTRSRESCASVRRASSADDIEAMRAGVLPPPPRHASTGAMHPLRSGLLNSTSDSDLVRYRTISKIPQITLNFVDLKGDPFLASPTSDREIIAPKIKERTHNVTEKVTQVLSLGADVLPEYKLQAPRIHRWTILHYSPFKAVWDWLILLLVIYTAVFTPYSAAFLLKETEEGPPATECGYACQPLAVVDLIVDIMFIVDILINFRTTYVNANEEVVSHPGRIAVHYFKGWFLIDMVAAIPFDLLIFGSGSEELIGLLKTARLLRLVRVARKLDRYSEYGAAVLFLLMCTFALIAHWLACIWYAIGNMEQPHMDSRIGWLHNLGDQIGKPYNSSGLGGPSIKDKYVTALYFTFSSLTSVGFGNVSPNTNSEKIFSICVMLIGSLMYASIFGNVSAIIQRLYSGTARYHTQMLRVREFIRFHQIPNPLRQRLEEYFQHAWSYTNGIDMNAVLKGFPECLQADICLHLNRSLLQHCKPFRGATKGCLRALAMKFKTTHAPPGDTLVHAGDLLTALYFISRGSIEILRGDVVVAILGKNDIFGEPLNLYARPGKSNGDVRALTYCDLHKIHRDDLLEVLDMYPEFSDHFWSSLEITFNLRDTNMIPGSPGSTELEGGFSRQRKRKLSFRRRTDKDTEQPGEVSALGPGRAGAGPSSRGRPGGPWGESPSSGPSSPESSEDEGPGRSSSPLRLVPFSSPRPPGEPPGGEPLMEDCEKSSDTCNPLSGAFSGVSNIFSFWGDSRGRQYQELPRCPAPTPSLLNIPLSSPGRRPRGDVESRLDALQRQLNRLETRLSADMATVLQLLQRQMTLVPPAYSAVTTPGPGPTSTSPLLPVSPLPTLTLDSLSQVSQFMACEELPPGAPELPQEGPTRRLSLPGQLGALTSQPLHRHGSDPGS

Compound	hERG current change (%, negative = inhibition) at 1uM [%]
CC(C)C(=O)N1CCC2(CC1)Oc1ccc(Cl)cc1C(=O)C21CC(c2ccc(Cl)cc2)=NO1 (stereo not shown)	7.04
CCN(CC)c1cc(C)c2cc(NC(=O)c3ccccc3OC)ccc2n1	-3
O=C(Nc1ccc2c(c1)OCO2)Nc1ccccn1	9.53
Cc1ccc(-n2nnc3c(=O)n(CC(=O)N4CCOCC4)cnc32)cc1	-3.26
CCC(C)N1CCN(C(=O)COc2ccc3ccccc3c2)CC1.O=C(O)C(=O)O (stereo not shown)	-4.41
CC(=O)c1c(O)cc(=O)n(-c2ccccc2)c1-c1ccc(C)cc1	17.7
Brc1cccc(/C=N/Nc2nn[nH]n2)c1	10.9
O=C(C1CCCN(c2ncnc3c2nc2n3CCCCC2)C1)N1CCN(c2ccccc2F)CC1 (stereo not shown)	15.5
CCC(C)(C)NC(=O)C(c1ccccc1Cl)N(C(=O)CCC(=O)Nc1cc(C)on1)c1ccc(NC(C)=O)cc1 (stereo not shown)	15.8
CC1(C)CC(=O)c2sc(NS(=O)(=O)Cc3ccccc3)nc2C1	10.4
COC(=O)[C@@]12CCCCN1[C@H](c1ccc(-c3ccc(F)cc3)c(OC)c1)[C@@H]1C(=O)N(C)C(=O)[C@@H]12.O=C(O)C(F)(F)F	10.1
C/C(CC(=O)NC(C)(C)C)=N\NC(=O)c1ccco1	4.35
COc1ccc(C(=O)CCC(=O)N2CCN(c3ccc(C)cc3)C(C)C2)cc1 (stereo not shown)	27.1
CCOc1ccc2nc(C(C)O)[nH]c2c1 (stereo not shown)	6.97
COc1cc(NC(=O)c2ccco2)c(OC)cc1NC(=O)CSc1nnc(-c2cccs2)n1C	-24.7
COc1ccccc1OCCCn1c(=O)oc2ccc(C)cc21	-13.8
CC(=O)N1N=C(c2cccnc2)OC1c1ccc(C(C)C)cc1 (stereo not shown)	-9.04
COC(=O)c1cc(NC(=O)CN2CCc3cc4c(cc3C2)OCCCO4)cc(C(=O)OC)c1	-2.38
O=C1CN=C(c2cccs2)c2c(sc3c2CCCC3)N1	-5.51
Cc1ccc2nc(SCC(=O)N3CCCC3)[nH]c2c1	7.88
CCC(C)n1nccc1NC(=O)C(C)Cl (stereo not shown)	16.3
CC(=O)Nc1ccc(/C=C/c2nc(-c3ccccc3O)n[nH]2)cc1	4.54

Compound	hERG current change (%, negative = inhibition) at 1uM [%]
COc1cccc(C2NC(=O)N(CCCC(=O)O)C(C)=C2C(=O)OCc2ccccc2)c1 (stereo not shown)	12
O=C(CN1C(=O)COc2ccc(Cl)cc21)NCC1CCCO1 (stereo not shown)	13
O=C1CSC(=Nc2ccc(F)cc2)N1	-0.0698
CC(=O)OC(c1nc2ccccc2c(=O)n1C1CC2(OC1=O)c1ccccc1N1C(=O)C(C)(C)N(O)C12)C(C)C (stereo not shown)	6.36
Cc1ccc2c(c1)N(CC(=O)N1CCCCC1C)C(=O)CO2 (stereo not shown)	12.5
COc1cc(/C=C(/C#N)c2nc3ccccc3[nH]2)ccc1Oc1ncccc1[N+](=O)[O-]	11.2
Cn1c(N/N=C/c2cccs2)nc2c1c(=O)n(Cc1ccccc1)c(=O)n2C	-2.26
CCOC(=O)C1=C(N)OC2=C(C(=O)CCC2)C12C(=O)N(C)c1ccccc12 (stereo not shown)	11.7
CCCCN(C)CCNC(=O)C1CCN(S(=O)(=O)c2cccc3nsnc23)CC1	13
COc1ccc(/C=C2/SC(=S)NC2=O)cc1OCc1ccccc1	8.97
COc1ccc(C2C(C#N)=C(N)Oc3n[nH]c(C)c32)cc1CSc1ccccn1 (stereo not shown)	-2.32
Cc1nc2ccccc2n1C1CCN(CC(=O)Nc2ccccc2Br)CC1	5.35
Cc1cc(C(=O)N/N=C/c2cc(Cl)cc([N+](=O)[O-])c2O)n[nH]1	6.43
CCOC(=O)C1CCN(C(=O)c2cc3cc(Br)ccc3oc2=O)CC1	5.14
CS(=O)(=O)c1ccc(-c2cc(Br)sc2-c2ccc(F)cc2)cc1	17.2
Cc1nn(Cc2ccc(Br)cc2)c(C)c1NC(=O)c1nn(C)cc1Cl	11.4
CCOC(=O)c1sc(NNC(=O)c2ccc(F)cc2)nc1C	10.2
COc1cccc(NC(=O)N2CCCC2C(=O)Nc2ccc3c(c2)OCO3)c1 (stereo not shown)	24.4
Cn1cc(CC(=O)NCCCN2CCCC2)c2ccccc21	9.93
CSc1ccc(S(=O)(=O)N2CC(=O)Nc3ccccc32)cc1	10.3
Cc1ccnc(NS(=O)(=O)c2ccc(NC(=O)c3cc(-c4ccccc4)nc4ccccc34)cc2)n1	12.4
